The campaign covered roughly 48,000 compounds. About 1,200 (2.5%) were called active. Another 2% or so got no clear call; they are omitted.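 The calls were made as follows: active = activation of at least 60% and not above a set upper limit (about 1 call in 100 departs from these limits); inconclusive = activation of 40% to 60%, or above that upper limit; inactive = activation under 40%.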 This is one part of the list.

Sequence of UniProt O75388 (O75388 whole entry, looked up): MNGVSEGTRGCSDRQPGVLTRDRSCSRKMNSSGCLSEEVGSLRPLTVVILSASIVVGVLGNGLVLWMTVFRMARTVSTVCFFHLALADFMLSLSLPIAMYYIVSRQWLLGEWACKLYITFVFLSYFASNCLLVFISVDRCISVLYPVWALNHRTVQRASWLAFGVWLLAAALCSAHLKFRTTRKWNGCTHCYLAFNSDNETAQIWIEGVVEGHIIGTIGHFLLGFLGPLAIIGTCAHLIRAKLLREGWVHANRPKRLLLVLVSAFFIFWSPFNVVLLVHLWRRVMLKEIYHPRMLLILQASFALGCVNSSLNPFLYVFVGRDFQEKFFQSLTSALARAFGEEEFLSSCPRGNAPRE

The target of the assay is Probable G-protein coupled receptor 32 (Homo sapiens) (UniProt O75388). Put plainly: qHTS for Agonists of Human Resolvin D1 Receptor DRV1. As to conditions: CHO-K1 GPR32 beta-arrestin PathHunter luminescence, 90 min; at 76.9 µM; active compounds read high; zero percent set by DMSO-only wells. The gist of the method:
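Beta-arrestin recruitment read-out: luminescence from complemented beta-Gal in CHO-K1 GPR32 PathHunter cells, measured 1 h after detection reagent at ambient temperature following 90 min compound exposure at 37 °C; DMSO served as basal (EC0) control.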
As for `CC1CCCN(C(=O)c2cc3ccc4cccnc4c3[nH]2)C1` (centres undefined), the activation was inactive: -13.6%. For `CCOc1ccc(N2CC(NC(=O)c3ccco3)CC2=O)cc1` (centres undefined), the activation was inactive: -2.54%. As to `COc1cccc(-n2ccnc2SCC(=O)Nc2c(C)cc(C)cc2C)c1`, the activation was inactive: -25.9%. With `Cc1cc(C)c(NC(=O)Cn2c(=O)c3cccn3c3ccccc32)c(C)c1`, the activation is inactive: -9.96%.

Take `CCCCNC(=O)c1ccc2c(c1)N(Cc1ccc(F)cc1)C(=O)c1ccccc1S2=O` (centres undefined): the activation was inactive: -11.8%.

Turning to `CCSc1ncc(Cl)c(C(=O)N2CCN(c3ccccc3OC)CC2)n1`, the activation was inactive: -3.68%. The value for `CCOCCCNC(=O)c1ccc(-n2c(-c3ccccc3)cc3c2CCCC3)cc1` was inactive: -22.9%; that for `Cc1ccc(NC(=O)/C=C\C(=O)N(c2ccc(C(C)C)cc2)C(C(=O)NCc2ccco2)c2ccc(Cl)cc2)cc1` (centres undefined) was inactive: -21.5%; that for `Cc1cccc(C(=O)OCc2cc(=O)n3ccsc3n2)c1` was inactive: 8.3%. Regarding `COc1ccc(CNC(=O)C2CCN(S(=O)(=O)c3c(C)noc3/C=C/c3ccccc3F)CC2)cc1`, the activation was inactive: -12.1%. The value for `COc1ccc(Cn2ccc3nc(C)c(C(=O)Nc4ccc(OC)cc4)cc3c2=O)cc1` was inactive: -17.7%; that for `Cc1ccc(-n2c(C)cc(C(=O)C(=O)Nc3ccccc3)c2C)c(C)c1` was inactive: -5.17%; that for `O=c1cc(-c2ccc(O)cc2)oc2cc(O)cc(O)c12` was inactive: -20.5%. The value for `COc1ccc(CCNC(=O)CCn2c(=O)c3ccccc3n(Cc3ccccc3F)c2=O)cc1OC` was inactive: 7.45%; that for `CC(C(=O)NCCSCc1cccc(Cl)c1)N(c1ccccc1)S(C)(=O)=O` (centres undefined) was inactive: 28.4%.

`CC(=O)Nc1nc2n(n1)C(c1ccc(F)cc1)C=C(c1ccc(Cl)cc1)N2` (centres undefined): the activation is inactive: -37.2%. In the case of `CN(C(=O)CCc1nc(-c2ccccc2F)no1)c1ccc(Cl)cc1`, the activation is inactive: -23.8%. In the case of `O=S(=O)(c1ccc(OC(F)(F)F)cc1)N1CCC(c2nnnn2-c2ccc(F)cc2)CC1`, the activation is inactive: -10.6%. `Cc1ccc(NC(=O)c2nc(S(C)(=O)=O)ncc2N(Cc2ccc(C(C)(C)C)cc2)Cc2ccco2)cc1C`: the activation was inactive: -13.7%. The value for `CCc1cccc(NC(=O)C2CCCN(c3ncnc4onc(-c5ccc(F)cc5)c34)C2)c1` (centres undefined) was inactive: -7.17%; that for `CCCC(O)c1nc2ccccc2n1CCCOc1ccc(Cl)cc1` (centres undefined) was active: 68.1%. As to `COc1cc(C(=O)NCC(c2ccc3c(c2)OCO3)N2CCOCC2)cc(OC)c1OC` (centres undefined), the activation is inactive: -14.8%. Regarding `CCOc1ccc(-c2cc3c(=O)n(CC(=O)NCc4ccc(C)cc4)ccn3n2)cc1`, the activation was inactive: 11.9%. With `COc1ccc(-c2noc(CSCC(=O)Nc3cc(OC)c(OC)c(OC)c3)n2)cc1OC`, the activation is inactive: -7.79%. `CCn1cc(C(=O)OCC(=O)Nc2ccc(C)c(Cl)c2)c(=O)c2ccc(C)nc21`: the activation is inactive: 2.14%. Take `CCN1CCSc2ccc(C(=O)NCc3ccc(OC(C)C)cc3)cc21`: the activation was inactive: -17.5%.

In the case of `CCOC(=O)Cc1ccc(NC(=O)NCc2c(-n3cccc3)sc3c2CCCC3)cc1`, the activation is inactive: 7.53%. Regarding `COc1ccc(N(Cc2cc3ccccc3[nH]c2=O)C(=O)c2cccc(Cl)c2)cc1`, the activation was inactive: -26.5%. The value for `CCn1ccc(NS(=O)(=O)c2ccc(N)cc2)nc1=O` was inactive: 40.1%; that for `Cc1ccc(NC(=O)c2c(C)cc(C)nc2SCC(=O)Nc2ccc(Br)cc2)cc1` was inactive: -20.6%. The value for `CC(=O)N1c2ccccc2CC1C(=O)N1CCN(c2ccccc2)CC1` (centres undefined) was inactive: -11.3%. On to `CCc1nc2ccc(C(=O)NCCc3ccccc3OC)cc2nc1CC`, for which the activation was inactive: -20%. In the case of `O=C(CS(=O)(=O)c1cccc2nsnc12)Nc1ccccc1Cl`, the activation was inactive: -1.24%. For `CCCCN1CC(c2nc3ccccc3n2CCCCOc2cc(C)ccc2C)CC1=O` (centres undefined), the activation is inactive: 14%. As to `Cc1ccc(-c2csc(-c3nc(-c4ccc(Br)s4)cs3)n2)cc1`, the activation was inactive: 9.4%. Take `CCN(CC)CCNC(=O)Cn1ncc2c3ccccc3n(Cc3ccc(Cl)cc3)c2c1=O`: the activation was inactive: -13.5%. For `Cc1ccc(NC(=O)CSc2nc(=O)n(Cc3cccnc3)c3c2CCC3)cc1F`, the activation is inactive: -1.12%.

Take `COc1ccc(NC(=O)Cn2nnc(C(=O)NCc3cccs3)c2N)cc1`: the activation was inactive: -1.25%.

Consider `COc1ccc(Cc2nc3ccc(C(=O)NCc4ccccc4C)cc3o2)cc1`, for which the activation is inactive: -27.9%. As for `COc1ccc(NC(=O)CN2C(=O)CC(c3ccc(C)c(C)c3)=Nc3ccccc32)cc1OC`, the activation was inactive: -11.3%.

For the molecule `CCC(CC)C(=O)Nc1ccc2nc(SCC(=O)N3CCCC3)sc2c1`, the activation was inactive: -2.74%.

Turning to `CCc1cccc(C)c1NC(=O)c1cc(S(=O)(=O)N(Cc2ccc(C(=O)OC)cc2)Cc2ccc(OC)c(OC)c2)ccc1F`, the activation was inactive: -20.3%. For `Cc1ccccc1Oc1nc2ccccn2c(=O)c1/C=C(\C#N)c1nc2ccccc2[nH]1`, the activation is inactive: -8.72%. For `Cc1ccc2nc(-c3cccs3)c(Nc3c(C)cccc3C)n2c1`, the activation is inactive: 11.4%. For the molecule `CN(C)c1ccc(/C=C/c2nc(-c3ccccc3O)n(-c3ccccc3)n2)cc1`, the activation was inactive: -7.6%. As to `CC(C)CCNC(=O)CN1C(=O)CSc2ccc(S(=O)(=O)N3CCC(C)CC3)cc21`, the activation was inactive: -11.6%. Take `CCOC(=O)C1CCCN(c2nc3c(S(=O)(=O)c4ccc(CC)cc4)nnn3c3ccsc23)C1` (centres undefined): the activation was inactive: -23.3%. Take `Cc1ccc2c(c1)c1c(c(=O)n(-c3cccc(Cl)c3)c(=O)n1CC(=O)NCC1CCCO1)n2C` (centres undefined): the activation is inactive: 0.404%.

Consider `COc1ccc(NC(=O)[C@H]2O[C@@H]3OC(C)(C)O[C@@H]3[C@H]3OC(C)(C)O[C@H]32)c(OC)c1`, for which the activation was active: 97%.

Consider `Cc1c(C(=O)NCc2ccc(F)cc2)oc2ccc(S(=O)(=O)N3CCCCC3)cc12`, for which the activation is inactive: 18.5%. The value for `Cn1c(=O)[nH]c(=O)c2c1nc(N1CCOCC1)n2Cc1ccccc1` was inactive: -21.6%; that for `Cc1ccccc1OCC(=O)Nc1ccc(-c2nc3ccccc3o2)cc1` was inactive: -3.73%; that for `CCOC(=O)Cc1ccc(NC(=O)Nc2c[nH]c(=O)[nH]c2=O)cc1` was inactive: 38.7%. Take `CCc1cccc(NC(=O)CCc2nc3cccnc3n2Cc2ccc(OC)cc2)c1`: the activation was inactive: 12.6%.

In the case of `CC(=O)c1cccc(NC(=O)C2CCN(S(=O)(=O)c3ccc4c(c3)CCCN4C(C)=O)CC2)c1`, the activation was inactive: 9.87%.

As for `Cc1ccc(-c2nc(C)c(CCNC(=O)c3cccs3)s2)cc1`, the activation was inactive: 17.8%.

Take `O=C(O)Cc1csc(-c2ccc(Cl)cc2)n1`: the activation was inactive: -9.97%. In the case of `Cc1c(C(=O)OCc2ccccc2)[nH]c2c1C(=O)CC(c1ccc(C(C)(C)C)cc1)C2` (centres undefined), the activation was inactive: 15.8%. Consider `CC1CCN(c2nn3c(=O)c(C(=O)NCCCOC(C)C)cnc3s2)CC1`, for which the activation was inactive: -2.5%. The value for `Cc1ccc(CN2CCCn3nc(C(=O)NCCc4ccccc4C)cc3C2=O)cc1` was inactive: 16.9%. As for `COc1cc(C(=O)Nc2ccccc2-c2nc(-c3ccccc3)no2)cc(OC)c1OC`, the activation was inactive: -1.62%.

Regarding `CCc1cccc(NC(=O)c2cc3c(=O)n(Cc4ccccc4)ccc3nc2C)c1`, the activation is inactive: 7.48%.

With `CCN(CC)c1nc2ccccc2nc1C(=O)Nc1ccc(C(C)=O)cc1`, the activation was inactive: -10.8%. For the molecule `Cc1ccc(C)c(NC(=O)CN(C)S(=O)(=O)c2cccc3nsnc23)c1`, the activation was inactive: 6%. The value for `Cc1cccc(N(C)c2nc3ccc(C(=O)c4ccccc4)cc3n3c(C)nnc23)c1` was inactive: -36.6%; that for `Cc1ccc(-n2nc(C(=O)Nc3ccc(F)cc3F)c3c4ccccc4n(C)c3c2=O)cc1` was inactive: -5.13%; that for `Cc1ccc(C)c(NC(=O)Cn2c(=O)n(CCC(C)C)c(=O)c3cccnc32)c1` was inactive: 6.43%. With `CC(C)(C)C1CCc2c(sc(NC(=O)c3cc4ccccc4c(=O)o3)c2C(N)=O)C1` (centres undefined), the activation was inactive: 23.8%. For `CCCCCOc1ccc(/C=C/C(=O)Nc2sc(C)c(C)c2C(=O)OCC)cc1OC`, the activation was inactive: -8.84%. For `COc1ccccc1NC(=O)Cn1cc(S(=O)(=O)Cc2ccccc2)c2ccccc21`, the activation was inactive: 0.532%. In the case of `COc1ccc(CNc2ncnc3c2nc2n3CCCC2)cc1`, the activation was inactive: -13.4%. With `COc1ccc(CCn2c3c(c(=O)[nH]c2=O)C(NC(=O)c2ccc(Cl)cc2)(C(F)(F)F)C(=O)N3)cc1OC` (centres undefined), the activation is inactive: 17.8%. As for `COC(=O)CSc1ncc2c(n1)-c1ccccc1N(Cc1ccc(Cl)cc1)S2(=O)=O`, the activation is inactive: -1.89%. The value for `Cn1ncc2c(Nc3cc(C(F)(F)F)ccc3Cl)ncnc21` was inactive: -10.2%. The value for `Cc1cccc(OCC(=O)Nc2ccccc2C(=O)OCc2cc(=O)n3ccsc3n2)c1` was inactive: -0.369%. Consider `COc1ccc(NC(=O)c2c(C)oc3ccc(O)c(CN4CCC(C)CC4)c23)cc1Cl`, for which the activation was active: 82.6%. In the case of `Cc1cccc(CNC(=O)Cn2c(-c3cccs3)cc3ccccc32)c1`, the activation was inactive: -12.1%. As to `CCN(c1cccc(C)c1)S(=O)(=O)c1cc(Br)cc2c1N(C(C)=O)C(C)C2` (centres undefined), the activation was inactive: 17.4%. The value for `CC(NC(=O)c1ccc2c(c1)N(Cc1ccc(Cl)cc1)C(=O)CS2)c1ccccc1` (centres undefined) was inactive: -6.55%. In the case of `O=C(Cn1ccnc1[N+](=O)[O-])NCCO`, the activation was inactive: -12.8%. Turning to `CCCN(c1c(C)n(C)n(-c2ccccc2)c1=O)S(=O)(=O)c1ccc(C)cc1`, the activation is inactive: 9.42%.

Turning to `COc1ccc2c(c1)c1c(c(=O)n(-c3ccccc3C)c(=O)n1Cc1cccc(C(F)(F)F)c1)n2C`, the activation is inactive: -1.84%. Regarding `CC(C)OC(=O)c1ccc(Cn2nnc3sc4c(c3c2=O)CCCC4)cc1`, the activation is inactive: 19.5%. Turning to `CCc1ccc(-n2nnc(-c3nc(-c4cccs4)no3)c2N)cc1`, the activation is inactive: 10.7%.

For the origin of these results see PubChem BioAssay AID1346428 (National Center for Advancing Translational Sciences (NCATS), 2018).
